Measurements from the supplement of paper PMC11417369.
The other results are listed elsewhere or left out.

Tested on: PfHDP1 homeodomain (GST-tagged)
Assay: gcPBM binding intensity (ln(normalized median fluorescence intensity)); higher = stronger DNA binding
Outline: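 An Agilent 4 × 180k array of primer-extended double-stranded 36-bp intergenic genomic probes, with negative controls, was incubated for 1 h with GST-tagged P. falciparum DNA-binding domains expressed in E. coli. Alexa488 anti-GST antibody detected bound protein, scanned at 488 nm. Binding intensity is the highest Masliner-normalised natural-log median intensity across replicate spots of either probe orientation.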

Row | Sequence | gcPBM binding intensity (ln)
1 | GATCAAAATTATAGAAGTACTTTATATAAATAAAAT [XGTACX_site8161] | 6.41
2 | TCTATAAAATATAAAAGTACGTATCAATAATTAAAA [XGTACX_site8469] | 6.59
3 | TCATAAATACATTTTGCATGTAAAATATAGAATACA [TGCATGCA_site755] | 7.05
4 | TATTTTATAAATTAATGTACATAAATTATATCTACT [XGTACX_site3625] | 6.16
5 | ATTACGATAGAGAAATGTACATATATATATGTAAGT [XGTACX_site1200] | 6.61
6 | ATCCCCATAAAAAATACACACAAATATTTATACATA [CACACA_site1001] | 6.79
7 | AAGTAAAAAAAAAAAAGTACATGTTTATATAAATAT [XGTACX_site4741] | 6.37
8 | ATAGAATCTGGTAGCTGTACGAGTCGTAGAGTGTAG [XGTACX_site2016] | 6.59
9 | ATATATTAAAAGGATTAGGAAAAAATATGATTTATC [TGCATGCA_negctrl_site405] | 6.24
10 | ATAAATTAACATTAAAGTACATTTTAATAAATATTA [XGTACX_site3647] | 5.78
11 | ATACATATATATAATACACACATAAATGTAACATTT [CACACA_site3518] | 7.02
12 | CCATAAAACTATAATACACACATATAGATTAACATA [CACACA_site7849] | 6.54
13 | AAAATTGGTGAAAATGAAAATATGATTATATGTATA [XGTACX_negctrl_site505] | 6.29
14 | TGATAAGAAAAAGACTTTTCCTTCTTACTTTCTATG [CACACA_negctrl_site782] | 5.83
15 | AATAATGTTTTTATATCACACACAAATATTAAATGA [CACACA_site8074] | 6.39
16 | CAAAATAAATAATTTGGTACACATAAAAAAAAAAAA [XGTACX_site8380] | 6.26
17 | TGCTGTATATTTTTCTGTACACATTTATATATTCCA [XGTACX_site6244] | 6.65
18 | TTTTTTTTTCTTCTTTTCAAATTTAAGAAATTATAA [CACACA_negctrl_site18] | 5.91
19 | AAAGGGAATTATGGCTGTACGCATTTTATAAATAGC [XGTACX_site5878] | 6.21

Row | Sequence | gcPBM binding intensity (ln)
20 | TTGTTATTATATTACGCATGCATCATTTATTTGCAC [TGCATGCA_site525] | 7.81
21 | AAGAATAAGAAGAAGGATCCCCTTCAAAAAAAAAAA [TGCATGCA_negctrl_site525] | 5.87
22 | ATGAAGAATTTATATTGTACCCATTTTTATGTAAAT [XGTACX_site2528] | 6.55
23 | AAAAAAAAAACATACACACATACATACATATATATT [CACACA_site949] | 6.49
24 | CGAAAAAGTGATATAGTGCAAAATTTTCATTTCTCT | 9
25 | ATATGTATGTATAATCGTACAAAATTTGGCGATCTT [XGTACX_site8698] | 6.21
26 | TTTATATGTATTAATTGTACACATATAATGTGTTTT [XGTACX_site3064] | 6.59
27 | TTTTTTTTAAAACTATGTACGTAAAAATTGTAGTTT [XGTACX_site2302] | 6.6
28 | GATATAATTATGTGTACACAATTTTTTTTTTTTTTT [CACACA_site4501] | 6.77
29 | AAATAAAGGAAATAAAAAGAAACCAATTTCGAATAT [CACACA_negctrl_site953] | 6.46
30 | AGAACTTTTAATGGATGTACAGTTATTTTATTATTT [XGTACX_site6226] | 6.12
31 | ATATAGTAAATTGGTAGTACATAAAATGATTTTATG [XGTACX_site4143] | 6.38
32 | AACAGATAAAAGGGTACACACATATATACAAGTACA [CACACA_site7959] | 6.45
33 | TATATAGATATGATAGTGCATTTTTAGAAAACATAA [GTGCAC_site9962] | 7.95
34 | TTATGTAGCTAGCTATAAACTTTTTTTTATTTAAAA [CACACA_negctrl_site1297] | 5.87
35 | ATTATTATTAAATACACACACATACCTCCATGTTAG [CACACA_site3430] | 6.94
36 | ATATATATATATATATGTACATACTATACAATAATT [XGTACX_site3546] | 9.34
37 | ATGCTTTTATGCACACGTACAAAAATATTATATAAT [XGTACX_site5589] | 10.9
38 | ATAATTTTATCATATATATATATATATAAATACTTA [CACACA_negctrl_site743] | 6.65

Row | Sequence | gcPBM binding intensity (ln)
39 | AAAAATTGAATTTTTTTTTTTTTTTTGAGAAGGAAA [CACACA_negctrl_site1196] | 6.45
40 | AATAATAAAGTGAACACACACATATAATATATATAT [CACACA_site4143] | 8.07
41 | ATAATTAAAATGCTCACACACATAAAAAAAAATTAA [CACACA_site2149] | 8.24
42 | CAAACAAACGAACACACACACACACGCAAAAATGAT [CACACA_site7194] | 6.9
43 | AATATTTTTGTCGTTAGTACATAAAAAATAATAATA [XGTACX_site3074] | 6.1
44 | GAAATTATTATATAAACACACATTTATTTTATTTTA [CACACA_site1957] | 6.24
45 | GTATTATACCATAATGCATGTTAACTTCAAAAGAAA [TGCATGCA_site839] | 6.5
46 | TAATATATTGTAGATGCATGCATTAACTATTACAAA [TGCATGCA_site190] | 6.51
47 | CGTATAAATAAATACACACACATATAAATATGTAAA [CACACA_site6236] | 6.54
48 | TATCAATGGAAAATATATATTTGTATATATGTAATA [XGTACX_negctrl_site257] | 6.53
49 | GGATATATTTTATGTACACACATATATAACGGATAT [CACACA_site4847] | 6.72
50 | TTTTAAAAAAATAAATAAATAGAAAAAAAAAATAAA [TGCATGCA_negctrl_site579] | 6.27
51 | TATTATGACTTAAGTTGTACTGTTGAAAGAAGAAAA [XGTACX_site2985] | 6.67
52 | AAAAGTTATAGACACACACACATATAAATATAGATT [CACACA_site6617] | 6.64
53 | ATAAAAATTAAAGAATGTACACATATAATATATGTA [XGTACX_site8735] | 6.41
54 | TTGTTTCCTTAATATTCACACACATATATATAATAT [CACACA_site8553] | 7.2
55 | ATAATCCTTAAACACACACACACACTAATAAATAAA [CACACA_site8052] | 7.08
56 | TATAAATGTATACAAGTGCATATTATTCACACATAA | 8.59
